The other results are listed elsewhere or left out. The data describe in vitro nicking of single-stranded DNA by Rep domains (3 µM enzyme, 1 h, 37 °C); shown is the middle of each 90-letter strand. The score is log2 (uncut reads / reads without enzyme); strong cutting gives strongly negative numbers. There is no active / inactive call. The scaling is to total reads; values above 0 arise when much of the pool is cut.
Legend:
Assay in all cases: uncleaved DNA left, log2 of reads against the no-enzyme library (log2 ratio); higher = less cleavage (more negative = more Rep cleavage of the k-mer); sequences stand for … in CTCGTCCG…ACCGGAGA
[1] = tested on: T1, Rep nickase domain of Muscovy duck circovirus
T1 sequence (protein, residues 1-111, tag omitted): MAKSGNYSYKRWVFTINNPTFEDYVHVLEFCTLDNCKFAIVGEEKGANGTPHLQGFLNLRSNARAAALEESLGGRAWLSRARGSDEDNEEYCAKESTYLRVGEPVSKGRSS
Protocol: (§1)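 A pool of 90-nt single-stranded DNAs with seven random bases just before the constant AC of the nick site (name = the seven bases) was cut by 3 µM recombinant His6-SUMO-tagged Rep nickase domain (300 nM DNA, 50 mM HEPES pH 8.0, 50 mM NaCl, 1 mM MnCl2, 1 h, 37 °C, three replicates). Uncut DNA was amplified and sequenced.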

[2] = tested on: T2, Rep nickase domain of banana bunchy top virus
T2 sequence (protein, residues 1-94, tag omitted): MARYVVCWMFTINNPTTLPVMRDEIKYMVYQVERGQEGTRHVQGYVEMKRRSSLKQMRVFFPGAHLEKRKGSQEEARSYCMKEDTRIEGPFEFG
Protocol: as §1

[3] = tested on: T3, Rep nickase domain of cabbage leaf curl virus
T3 sequence (protein, residues 1-116, tag omitted): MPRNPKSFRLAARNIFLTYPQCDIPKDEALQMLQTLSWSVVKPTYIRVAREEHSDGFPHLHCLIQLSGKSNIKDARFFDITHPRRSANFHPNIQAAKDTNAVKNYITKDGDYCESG
Protocol: as §1

[4] = tested on: T4, Rep nickase domain of chickpea chlorotic dwarf virus
T4 sequence (protein, residues 1-124, tag omitted): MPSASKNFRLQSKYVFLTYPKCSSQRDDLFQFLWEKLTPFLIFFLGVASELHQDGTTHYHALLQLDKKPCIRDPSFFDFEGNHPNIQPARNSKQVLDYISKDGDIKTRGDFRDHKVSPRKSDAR
Protocol: as §1

[5] = tested on: T5, Rep nickase domain of faba bean necrotic yellows virus
T5 sequence (protein, residues 1-98, tag omitted): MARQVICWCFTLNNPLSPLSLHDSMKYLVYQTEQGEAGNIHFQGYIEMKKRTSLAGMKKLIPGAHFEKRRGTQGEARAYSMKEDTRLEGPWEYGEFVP
Protocol: as §1

[6] = tested on: T6, Rep nickase domain of maize striate mosaic virus
T6 sequence (protein, residues 1-117, tag omitted): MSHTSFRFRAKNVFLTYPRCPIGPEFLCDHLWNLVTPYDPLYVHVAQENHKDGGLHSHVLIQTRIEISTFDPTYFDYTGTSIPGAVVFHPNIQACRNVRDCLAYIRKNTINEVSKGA
Protocol: as §1

[7] = tested on: T7, Rep nickase domain of porcine circovirus 2
T7 sequence (protein, residues 2-116, tag omitted): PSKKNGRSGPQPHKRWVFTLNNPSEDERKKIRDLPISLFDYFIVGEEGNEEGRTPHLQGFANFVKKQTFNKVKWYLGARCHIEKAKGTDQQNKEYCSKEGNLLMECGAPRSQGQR
Protocol: as §1

[8] = tested on: T8, Rep nickase domain of tomato golden mosaic virus
T8 sequence (protein, residues 1-124, tag omitted): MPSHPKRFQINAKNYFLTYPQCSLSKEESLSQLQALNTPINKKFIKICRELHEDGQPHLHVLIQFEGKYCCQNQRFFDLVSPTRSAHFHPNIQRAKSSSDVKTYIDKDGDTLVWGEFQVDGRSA
Protocol: as §1

[9] = tested on: T9, Rep nickase domain of tomato yellow leaf curl virus
T9 sequence (protein, residues 1-136, tag omitted): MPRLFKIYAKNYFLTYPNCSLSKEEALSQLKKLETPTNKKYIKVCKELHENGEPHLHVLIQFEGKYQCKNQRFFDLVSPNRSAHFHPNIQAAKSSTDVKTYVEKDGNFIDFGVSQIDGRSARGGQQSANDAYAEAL
Protocol: as §1

[10] = tested on: T10, Rep nickase domain of wheat dwarf virus
T10 sequence (protein, residues 1-137, tag omitted): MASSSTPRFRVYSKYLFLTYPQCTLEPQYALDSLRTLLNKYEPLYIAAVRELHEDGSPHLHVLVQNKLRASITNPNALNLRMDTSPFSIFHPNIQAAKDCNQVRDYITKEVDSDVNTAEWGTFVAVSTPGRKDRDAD
Protocol: as §1

Row | Sequence | uncleaved DNA left (log2) [1] | uncleaved DNA left (log2) [2] | uncleaved DNA left (log2) [3] | uncleaved DNA left (log2) [4] | uncleaved DNA left (log2) [5] | uncleaved DNA left (log2) [6] | uncleaved DNA left (log2) [7] | uncleaved DNA left (log2) [8] | uncleaved DNA left (log2) [9] | uncleaved DNA left (log2) [10]
1 | AATCGGT | 0.0985 | 0.0261 | 0.25 | 0.843 | -0.0345 | 1.17 | -0.105 | 0.0797 | -0.0885 | 0.122
2 | CTCGCTA | 0.17 | 0.05 | -0.0917 | -0.954 | 0.158 | -0.832 | 0.0243 | 0.246 | 0.0993 | 0.137
3 | TAAAATG | 0.0925 | 0.0243 | -1.32 | -2.54 | 0.0271 | -1.18 | 0.22 | -0.0144 | 0.0625 | -0.0708
4 | GGCAGGT | 0.0545 | 0.0125 | 0.498 | 1.23 | 0.0279 | 1.74 | 0.116 | 0.0224 | 0.16 | 0.176
5 | GTATATA | 0.0796 | 0.139 | 0.298 | 0.876 | 0.141 | 1.68 | 0.111 | 0.178 | 0.183 | 0.194
6 | ATCTGAT | -0.0802 | -0.0656 | -0.0552 | 0.527 | -0.142 | 0.986 | -1.31 | 0.148 | -0.0394 | -0.00128
7 | AGGAGAC | 0.101 | 0.0606 | 0.562 | 1.54 | 0.0667 | 1.46 | 0.255 | 0.0834 | 0.0583 | 0.15
8 | AAGGAGA | -0.0164 | -0.0327 | 0.169 | 1.11 | 0.0895 | 1.08 | 0.0991 | -0.0043 | -0.27 | -0.0307
9 | CCTATTA | 0.0146 | -0.00238 | -0.0386 | -1.1 | 0.0194 | -0.674 | -0.0194 | 0.0965 | 0.135 | 0.179
10 | GTAATTC | -0.0014 | 0.0477 | 0.31 | 0.865 | -0.0284 | 1.45 | -0.0123 | -0.0351 | 0.017 | 0.076
11 | ACCAATC | -0.0336 | 0.0343 | -0.133 | 0.0341 | 0.052 | -0.711 | 0.114 | 0.12 | 0.0656 | 0.088
12 | GCCTAGG | 0.0442 | 0.0136 | 0.352 | 0.997 | -0.0266 | 0.872 | 0.126 | 0.138 | 0.0549 | 0.0891
13 | ATACGGT | 0.177 | 0.00602 | 0.105 | 0.686 | 0.0297 | 1.32 | 0.129 | 0.000895 | -0.0772 | 0.0205
14 | CCAGGTA | 0.145 | 0.0294 | 0.412 | 0.91 | 0.17 | 1.25 | 0.101 | 0.174 | -0.0217 | 0.0784
15 | CGTGAAC | 0.00697 | 0.0344 | 0.207 | 0.376 | -0.0163 | 0.536 | 0.107 | 0.0309 | -0.0465 | 0.0297

From the supplement of paper PMC7826260
